Reference: the RNAGym collection of RNA variant scans (doi:10.7554/elife.90254)
The source gives no read counts; variants with many changes may rest on few reads.

B1: OR4K15 (parent)
chain: GUUAACGGUCAUAGGCCAUGGAAACUAGGAGCACCAUUUCGCUGCCAGUGAAGAAAUGAACAAAGAAAAUCUGGGCCAGGCAGGCAUCAAAAGAAAUAGUCUUGCGCUCAACCAGAAAGUCUGUAAUCAUUUUAAGGGUA

Variants of: B1
Experiment: self-cleavage, relative activity (ratio to wild type); higher = more cleavage; in vitro, sequencing; the parent is a self-cleaving ribozyme

Variant	self-cleavage
U2G A22U A55G	0.7
U2G U19C A24G A59G A68G U127C	0.52
A5G A22G A94U A117G	1.41
U3C U57C A63G A68G A95G A114G G136A	0.23
U2C U9A A86G U120C	1.02
A4G A90G C109U G137A	0.34
A4G A55G G84U	0.71
U3C C40U A60G	1
A5C A59G U87A A111G	0.04
A5C A51G A52G A78G U131C	0.38
U3C A5G G7A U37C A62C A67U A118G U130C	0.42
A4G A30U U43C U130C	1.13
U2C U38A U49C A56G	0.87
U3C A24G U108A	0.05
A4G U9C A56G A78G A117C A126U	0.28
U2C U87C A92G	0.78
U3A U57C U120C	0.39
U3C U37C A96G U130C	0.52
A4G A11G A52G A90G	0.49
U3A A22G U39C A60G A90U	0.59
A4G A33G C76U U124C	0.14
U3C U19C A56U A82G A117G	0.74
U2G A55U A63C A67G A78G A117G	0.34
U2C U38C U57A	1.04

Variant	self-cleavage
A5G A11U A23G U37C U70C U122C U127C	0.15
U2C U39G A78U	0.04
A5G A24C A63G	0.91
A5G A18G A56G G73U	0.33
A5G A22G A51U	0.74
U2C U39C U103C	1.06
U2C U9C C10U U26A A114C	0.03
U2C U43A U57A A82G A94G	0.59
U3C U43G C77U	1.51
A5G A11G A23G G50U A114U	0.09
U3C A110U U132A	1.13
U3C G14A A91G U122A U131C	0.01
U2C U39C C45U	1.08
A4G A86G G123A	1.39
U2C U19A A126G	1.75
U2C U19C A116G	0.85
A4C A23U A60U	1.6
U2C U108A A111G	0.01
U3C A63U G106U U131C	0.02
U3C A89U U102C	1.71
U2C U9C U70C A86U A111G	0.01
A5G A23G A51G U131C	0.11
U3C A24G U49C A56G U72A A135G	0.16
U3C U19C A82G U87C	0.15

Variant	self-cleavage
U2C U12C C32U A55G A66G G79U U87C A134G	0.08
U2C U12A A22G U39A A59G A110G	0.12
U3G A64U A67G A125G	0.63
A4G A22G A118C U131C	0.97
A5G A22G A23G	1.36
U3C A22U U100C	1.77
A4G A30G A69U A92G	0.43
A4G U9C U72C	0.65
U3C U38C A96U U122A A126U	0.31
A4G G8A U12A	1.56
A5G A23G A36U A64G	0.75
U3C A5G U38C A78U A90G	0.33
U3A A23C A94U	1.27
A4G A11G A24G A68G A117G U132A	1.52
A4G C45G U97C U100C A126G	0.79
U3C A55G A94G U100C U120C	1.62
U3C A36U U120A	1.34
A5C U9C A11G A56G U130C	0.74
A4G A59G A60G A64U A117G	1.18
U3C U9C A82G A86G A116G	0.03
A4G A92G G104A	0.02
U2G A51U A56G U57C A118G	0.25
U3C U39A A52G A55G A95G	0.3
A5G A23G U130C	0.75

Variant	self-cleavage
A4G A60G G73A A78U	0.26
U3C A24G U37C	1.18
U3C A27G A82G C121U U127A	1.34
A5G A22U U43C A64G U72A A90G	0.24
U2C U39C U49A A60G A62U A69G A110C	0.23
A4G U57C A82G U108A	0.02
A4C A22G A54G	0.81
U3C A56G U57C U87C	0.73
A5G A22G A30G	1.49
A5G A11G A66G A94G U130C	0.6
U3C A69G A82G	0.51
A4G A63G A90G A111G	0.11
A4G A30G A67G C81U A111U	0.04
A4U A51G A66U A69U U102C	1.89
A5G A18G A33U A96G U102C	0.37
U3G A11G A78G	0.31
A5G A23G A55G A90G U122A	1.29
U3A U39C A68G	1.15
A4G A36G A94G U120C	0.89
U3C A11G A56G	0.84
U3C U87G U100C A110C U120C	0.17
U2C U39A U49C G74A G123C	0.08
U2C U12C A13U A62G A78C A91G	0.24
U3C U37C U49G U124A A135G	0.67

Variant	self-cleavage
A4G A23G U38C A51G A68G U132C	0.5
U3C U108C G136A	0.03
A5G A13U A18G U39C A54G A64G A78G	0.1
A5G A23G U39C A91G A125G	0.23
U2G A4U A52G A56G	0.71
U3C U70A A118G A126G	0.34
U3C A90U U133C	1.4
A4G A94G U103C U133C A134G	1.42
U2C U9C A66U A69G A111G U120C U127A	0.02
A4G A24G U38C A62G U70C A91U A98G A118G	0.17
U3C A22G U103C A111U U122C	0
U3C U19G A24G A51U A67G U100C U122C	1.12
U2C U19C A89G U97C C121U	0.87
A5C U12C A54U U103C A114G	0.39
A5G A22G U72A	0
A4G A64G A110U	1.17
U3C U108C U122C	0
U2C U49C A91G	0.14
U3C A18G A60U	0.58
U2G C10U G28A A114U	0.21
A5G A11U C16U A110G A111U U132C	0.01
U2C U9C A82U A91G	0.2
U3C U39C U72C	0.03
U3C A11U A52G	1

Variant	self-cleavage
U2G G21U U72C G123A	0.11
U3C A22U A64U A69U	0.74
U2G U19A U49A U108C	0.04
U3C A5G G7A G29U A68G	1.17
A4G U38C C71A A118G U132A	0.03
U3C U9C U39C	0.8
U2C U38C A68G G75A A110G	0.03
A4U U87A A116G	1.42
U2G A94G U122C	2.56
U3C U38C A82G A126G	0.17
U3C A78U A118G U122A	0.23
A4G A22G U38C	1.55
A4G A54C U102C	1.89
A4G A18U U26C	1.23
A4C A11U U12C A23G U124C	0.61
A4G U19C A54U U102C	1.5
A5G A18U U37C A62G	0.27
U2G A5G A96G U100C	1.43
U3C U70C A86G A91G	0.06
A4G A51U A90G C109U A117U	0.29
U3C A11G C17A A24G	0.76
A5C G20A A36C	0.99
U2C U37C A62G A78G G83C U127C U132C	0.05
A5G A13U A24G U100C	1.7

Variant	self-cleavage
U3A A22G A69U U132C	1.31
A5C U12C U39A A56G U131C U132C	1.4
A5C C16A A82G	0.56
A5G A23U A52G A62G A64G C109U	0.19
U2C U102A U130C	0.5
U3C U70C U133C	1.74
U2G A18G A30G A55G A59G A114G U132A	0.4
U3A A114G U120C	0.27
A4U A54G A55G A59G U132C U139C	0.45
U2C U9G A22G A47G A90G	0.77
U2C U57C G73A U103C	0.08
U2C U38C U49C	0.94
A5G A18G U38C C46A U122C	0.5
U3C U39C G58U A82G A111G A126G	0
A5C A94G U122C	1.19
U2C U72C A117G U122C	0.18
A5G A22G U122C	1.18
U3A U49C A51G	0.73
A5G A18G G21A	0.79
A4G A23G A30G U49A U87C U120C	1.05
A5G A13G U39C U43C	0.65
U3C U43A A86G	1.38
A5G A11G A64U	0.48
